Laboratory results: PubChem BioAssay AID2546 (National Center for Advancing Translational Sciences (NCATS), 2010)
Screen size: about 310,000 compounds; about 11,000 (3.5%) were called active. This list was built around the results that the source calls inconclusive (neither active nor inactive); the mix of calls is not that of the screen. Calls come from the whole dose curve; as a rule, active = well fitted inhibition curve with a large enough effect; inconclusive = small, poorly fitted or top-dose-only effect, or effect the other way; inactive = flat fitted curve, though single readings scatter. Potencies of inconclusive entries are left out as doubtful fits.

Experiment: VP16 counterscreen qHTS for inhibitors of ROR gamma transcriptional activity;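 note: Gal4-VP16 expression switched on by copper sulfate through the metallothionein promoter; nearly all actives have a fitted effect of over 50% in size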
Conditions: Drosophila S2 Gal4-VP16 UAS-luciferase, luminescence, 20 h; series mostly up to 53.6 µM
Potency is the fitted concentration of half-maximal effect; tags give direction and shape of the fitted curve.

Question: For `Cn1cc(CNCc2ccc(OC(F)(F)F)cc2)c(-c2ccc3c(c2)OCCO3)n1`, which Potency is on record?
Answer: Its Potency is active: 3.55 µM.

Question: With `O=S(=O)(c1ccccc1)c1cccc(S(=O)(=O)N2CCCCC2)c1` as the compound, how does the Potency read?
Answer: The Potency was inconclusive [inhibitor, single point].

Question: For `O=[N+]([O-])c1ccc(-c2cn(-c3ccccc3)c(=S)[nH]2)cc1`, which Potency is on record?
Answer: Its Potency is inconclusive [inhibitor, single point].

Question: For `O=C(Nc1nc2cc3c(cc2s1)OCO3)c1ccco1`, which Potency is on record?
Answer: The Potency was inconclusive [inhibitor, single point].

Question: With `NC(=S)N/N=C/c1ccc2c(c1)OCCO2` as the compound, how does the Potency read?
Answer: The Potency was inconclusive [inhibitor, single point].

Question: With `O=C(Oc1ccccc1N1CCOCC1)c1sccc1Br` as the compound, how does the Potency read?
Answer: The Potency was “inactive”.

Question: With `Cc1noc(C)c1-c1ccc2ncnc(NC(C)c3ccco3)c2c1` (stereo unspecified) as the compound, how does the Potency read?
Answer: Its Potency is inconclusive [inhibitor, single point].

Question: With `N#Cc1cc(-c2ccccc2)[nH]c1-c1nccc2ccccc12` as the compound, how does the Potency read?
Answer: Its Potency is inconclusive [inhibitor, single point].

Question: For `NCCCCCc1nnc(SCc2ccc(Cl)cc2Cl)o1`, which Potency is on record?
Answer: Its Potency is active: 5.62 µM.

Question: Which Potency does the source give for `COc1ccc(C(CNC(=O)C2CC2)N(C)C)cc1` (stereo unspecified) here?
Answer: Its Potency is inconclusive [inhibitor, partial curve].

Question: With `c1ccc2c(c1)[nH]c1c(N3CCCC3)ncnc12` as the compound, how does the Potency read?
Answer: The Potency was inconclusive [inhibitor, single point].

Question: With `COc1ccc(C(C(=O)NC2CCCCC2)N(C(=O)CCl)c2ccc(Cl)cc2)cc1` (stereo unspecified) as the compound, how does the Potency read?
Answer: Its Potency is inconclusive [inhibitor, single point].

Question: Which Potency does the source give for `O=C(Nc1ccc(Cl)cc1)c1ccc2ncsc2c1` here?
Answer: Its Potency is inconclusive [activator, partial curve, poor fit].

Question: With `CC(CC(=O)Nc1nc2ccccc2[nH]1)c1ccccc1` (stereo unspecified) as the compound, how does the Potency read?
Answer: Its Potency is active: 4.47 µM.

Question: For `CCCCC(=O)Nc1cc(NC(=O)CCCC)cc(C(=O)O)c1`, which Potency is on record?
Answer: Its Potency is inconclusive [activator, partial curve, poor fit].

Question: With `C/C(O)=c1/cnc2nc3ccccc3n2c1=O` as the compound, how does the Potency read?
Answer: The Potency was “inactive”.

Question: With `COc1ccc(C(=O)N/C(=C\c2ccco2)C(=O)NCc2ccco2)cc1` as the compound, how does the Potency read?
Answer: Its Potency is “inactive”.

Question: For `O=C1CCc2cc(S(=O)(=O)N3CCC(C(=O)NCc4ccccn4)CC3)ccc2N1`, which Potency is on record?
Answer: Its Potency is inconclusive [inhibitor, single point].

Question: Which Potency does the source give for `N#Cc1nc(-c2ccc(OCc3ccccc3)cc2)oc1NCc1cccnc1` here?
Answer: The Potency was inconclusive [inhibitor, single point].

Question: With `CCCCCC(=O)Nc1nc2ccccc2[nH]1` as the compound, how does the Potency read?
Answer: Its Potency is inconclusive [inhibitor, single point].

Question: With `O=c1oc2cc([N+](=O)[O-])ccc2nc1/C=C(O)/C=C/c1ccccc1` as the compound, how does the Potency read?
Answer: Its Potency is inconclusive [inhibitor, single point].

Question: Which Potency does the source give for `CCCn1c(SCC(=O)NCc2ccc(Cl)cc2)n[nH]c1=O` here?
Answer: The Potency was “inactive”.

Question: For `COc1ccc(OC)c(/C=N/N=C2\SCC(=O)N2Cc2ccco2)c1`, which Potency is on record?
Answer: Its Potency is inconclusive [activator, single point].

Question: For `Cc1ccc(O)c(NC2=C(Cl)C(=O)N(Cc3ccccc3)C2=O)c1`, which Potency is on record?
Answer: The Potency was inconclusive [inhibitor, single point].

Question: With `COc1cccc(/C=N/NC(=O)N/N=C/c2cccc(OC)c2O)c1O` as the compound, how does the Potency read?
Answer: Its Potency is “inactive”.

Question: With `O=C(Nc1nnc(-c2ccccc2)o1)NC1CCCCC1` as the compound, how does the Potency read?
Answer: The Potency was active: 4.47 µM.

Question: Which Potency does the source give for `O=C(CCc1nnc(CCCCc2ccccc2)o1)NC1CCCC1` here?
Answer: The Potency was “inactive”.

Question: With `COc1ccc(/C=C/c2noc(-c3ccccc3OC(C)=O)n2)cc1` as the compound, how does the Potency read?
Answer: Its Potency is inconclusive [inhibitor, single point].

Question: With `CC(C)(C)OC(=O)N1C[C@H](O)C[C@H]1C(=O)OCC(=O)c1ccc([N+](=O)[O-])cc1` as the compound, how does the Potency read?
Answer: The Potency was “inactive”.

Question: For `Cc1ccccc1-c1ncc(CN2CCN(C3CCCCC3)C(CCO)C2)cn1` (stereo unspecified), which Potency is on record?
Answer: Its Potency is inconclusive [inhibitor, single point].

Question: For `CCN(CC)c1ccc(NC(=O)Cn2cc3c(n2)CCC(C)C3)c(C)c1` (stereo unspecified), which Potency is on record?
Answer: Its Potency is active: 11.2 µM.

Question: With `C/C=C1\COC(C(=O)NCc2ccccc2)(C(F)(F)F)C=C1C=C1CCCCC1` (stereo unspecified) as the compound, how does the Potency read?
Answer: The Potency was inconclusive [inhibitor, single point].

Question: For `CCC(=O)Nc1ccc(C2C(=O)c3ccccc3C2=O)cc1`, which Potency is on record?
Answer: The Potency was inconclusive [inhibitor, partial curve].

Question: With `CC(C)Cc1ccc(/C=C/C(=O)NC2CC2)cc1` as the compound, how does the Potency read?
Answer: Its Potency is active: 15.8 µM.

Question: For `COC(=O)c1ccc(C(NC(=O)OCc2ccccc2)/C(F)=C/[C@@H](C)C(=O)NCc2cc(C)on2)cc1` (stereo partly specified), which Potency is on record?
Answer: Its Potency is “inactive”.

Question: With `Cc1cccc(NCc2n[nH]c(=S)n2-c2ccccc2)c1` as the compound, how does the Potency read?
Answer: The Potency was “inactive”.

Question: With `CC(C)Cn1c(N)c(C(=O)COC(=O)c2cccc(F)c2)c(=O)n(C)c1=O` as the compound, how does the Potency read?
Answer: The Potency was “inactive”.

Question: With `Fc1ccc(/C=N/Nc2nnnn2-c2ccccc2)cc1` as the compound, how does the Potency read?
Answer: The Potency was inconclusive [inhibitor, single point].

Question: Which Potency does the source give for `COCCn1c(=S)[nH]c2cc(C(=O)N3CC(C)CC(C)C3)ccc2c1=O` (stereo unspecified) here?
Answer: Its Potency is inconclusive [inhibitor, single point].

Question: Which Potency does the source give for `COc1cccc(OC)c1OCCCOc1cccc2cccnc12` here?
Answer: Its Potency is inconclusive [activator, full curve].

Question: Which Potency does the source give for `CC(C(=O)NC1=NCCS1)(C(F)(F)F)C(F)(F)F` here?
Answer: The Potency was inconclusive [inhibitor, single point].

Question: For `COc1ccc(N(CC(=O)NCCOc2ccccc2)S(=O)(=O)c2ccc(C)cc2)cc1`, which Potency is on record?
Answer: Its Potency is inconclusive [inhibitor, single point].

Question: Which Potency does the source give for `Cc1cc2c(c(C)c1Cl)C(c1ccc3c(c1)OCO3)CC(O)(c1ccccc1)O2` (stereo unspecified) here?
Answer: Its Potency is inconclusive [inhibitor, single point].

Question: Which Potency does the source give for `O=C(O)CCCC(=O)NNc1ncnc2ccccc12` here?
Answer: The Potency was “inactive”.

Question: Which Potency does the source give for `O=C(CSc1nnc2ccccn12)Nc1ccc(S(=O)(=O)N2CCOCC2)cc1` here?
Answer: Its Potency is “inactive”.

Question: With `Cc1nc(C(=O)NNC(=O)c2c(-c3c(Cl)cccc3Cl)noc2C)cs1` as the compound, how does the Potency read?
Answer: Its Potency is active: 8.91 µM.

Question: With `COc1ccccc1NC(=O)CSc1nc2ccccc2c(=O)n1CC1CCCO1` (stereo unspecified) as the compound, how does the Potency read?
Answer: Its Potency is “inactive”.

Question: For `O=c1c2ccccc2nc(/C=C/c2ccc([N+](=O)[O-])o2)n1CCCO`, which Potency is on record?
Answer: Its Potency is active: 7.08 µM.

Question: With `CCOc1cc(CNc2ccccc2)cc(Br)c1OCc1ccccc1F` as the compound, how does the Potency read?
Answer: The Potency was “inactive”.

Question: For `COc1cc(C(C[N+](=O)[O-])c2c(-c3ccccc3)cc3ccccn23)cc(OC)c1OC` (stereo unspecified), which Potency is on record?
Answer: The Potency was inconclusive [inhibitor, single point].

Question: With `O=C(Cc1ccc2c(c1)CCCC2)Nc1ccccc1Cl` as the compound, how does the Potency read?
Answer: The Potency was inconclusive [inhibitor, single point].

Question: Which Potency does the source give for `Cc1cccc(NC(=O)CN(c2ccc(F)cc2)S(C)(=O)=O)c1` here?
Answer: The Potency was active: 5.01 µM.

Question: With `Cc1ccnc(SCC(=O)Nc2sc3c(c2C#N)CCCC3)n1` as the compound, how does the Potency read?
Answer: The Potency was active: 7.08 µM.

Question: With `Cc1cc(C)cc(NC(=O)C2CCN(S(C)(=O)=O)CC2)c1` as the compound, how does the Potency read?
Answer: Its Potency is “inactive”.

Question: Which Potency does the source give for `COc1ccc(C(=O)Nc2ccc(C(=O)Nc3cccc(C)c3)cc2)cc1` here?
Answer: The Potency was “inactive”.

Question: With `Cc1cccc(-n2ccnc2SCC(=O)N2CCCc3ccccc32)c1C` as the compound, how does the Potency read?
Answer: The Potency was “inactive”.

Question: Which Potency does the source give for `CCn1c(SCC#N)nc2cc(S(=O)(=O)N3CCOCC3)ccc21` here?
Answer: Its Potency is “inactive”.

Question: With `O=C(OCc1ccccc1)[C@@H]1COC(c2ccc(Br)cc2)=N1` as the compound, how does the Potency read?
Answer: Its Potency is “inactive”.

Question: For `O=S(=O)(Nc1cccc(Cl)c1)c1ccc(-n2cccn2)cc1`, which Potency is on record?
Answer: Its Potency is inconclusive [inhibitor, single point].

Question: Which Potency does the source give for `Cc1ccc(C)c(OCCCC(=O)Nc2ccc(N3CCOCC3)cc2)c1` here?
Answer: The Potency was inconclusive [activator, partial curve, poor fit].

Question: Which Potency does the source give for `Cc1ccc2nc(NC(=O)c3ccc4ncsc4c3)sc2c1` here?
Answer: Its Potency is inconclusive [inhibitor, single point].

Question: For `O=[N+]([O-])c1ccc(/C=N/n2c(C3CCCCC3)n[nH]c2=S)cc1`, which Potency is on record?
Answer: Its Potency is inconclusive [inhibitor, partial curve].

Question: Which Potency does the source give for `CC(C)c1ccc2c(c1)CC[C@H]1[C@](C)(CN)CCC[C@]21C` here?
Answer: The Potency was inconclusive [inhibitor, single point].

Question: For `O=C(COc1ccccc1[N+](=O)[O-])Nc1cccc(Cl)c1N1CCOCC1`, which Potency is on record?
Answer: The Potency was inconclusive [inhibitor, single point].

Question: Which Potency does the source give for `CC(C)C(OC(=O)c1nsc(Cl)c1Cl)C(=O)NCC1CCCO1` (stereo unspecified) here?
Answer: Its Potency is “inactive”.

Question: Which Potency does the source give for `O=[N+]([O-])c1cc(Cl)cc(/C=N/Nc2nc3ccccc3s2)c1O` here?
Answer: The Potency was active: 2.24 µM.

Question: With `CCOC(=O)Cn1c(=O)oc2cc(S(=O)(=O)N3CCN(c4ccccn4)CC3)ccc21` as the compound, how does the Potency read?
Answer: The Potency was inconclusive [inhibitor, single point].

Question: Which Potency does the source give for `Cc1ccc(Nc2nc(-c3ccc(S(=O)(=O)N4CCOCC4)cc3)cs2)cc1Cl` here?
Answer: Its Potency is inconclusive [inhibitor, single point].

Question: Which Potency does the source give for `O=C(CSc1nnc(-c2cccnc2)o1)Nc1ccccn1` here?
Answer: Its Potency is “inactive”.

Question: For `Cc1ccc(NC(=O)C2=CC(c3cccs3)=NS(=O)(=O)N2C)cc1`, which Potency is on record?
Answer: Its Potency is “inactive”.

Question: Which Potency does the source give for `Cc1nn(CC(=O)Nc2ccc(N(C)C)cc2)c(C)c1[N+](=O)[O-]` here?
Answer: Its Potency is inconclusive [inhibitor, single point].

Question: Which Potency does the source give for `Cc1ccc(-n2cc(C(=O)c3ccc4ccccc4c3O)cn2)cc1` here?
Answer: Its Potency is “inactive”.

Question: With `COc1cccc(CNC(=O)CSc2cc(=O)n(C)c3ccccc23)c1` as the compound, how does the Potency read?
Answer: The Potency was “inactive”.

Question: Which Potency does the source give for `CC(C)CC(=O)NC(=S)Nc1ccc(N2CCCC2)c(Cl)c1` here?
Answer: Its Potency is active: 2.82 µM.

Question: For `O=C(Nc1nc2ccccc2s1)c1cc2c(s1)-c1ccccc1OC2`, which Potency is on record?
Answer: Its Potency is inconclusive [inhibitor, partial curve].

Question: With `c1cncc(CSc2nnc3ccc(-c4cccs4)nn23)c1` as the compound, how does the Potency read?
Answer: The Potency was inconclusive [inhibitor, partial curve].
